Results published in patent publication US20090087894A1, “Method for improving enzymatic activity of glycosyltransferases” (Japan Tobacco Inc., priority 2004, published 2009).
Values joined by “and” are separate entries in the source; they are usually repeats but may differ in a detail not shown here. Equal entries are not always repeated. Where two headings read alike, the source gives them in different places.

What was measured:
[1] = target: T1, β-galactoside-α2,6-sialyltransferase derived from P. damselae strain JT0160 (Photobacterium damselae, UniProt O66375)
T1 sequence (O66375 16-675): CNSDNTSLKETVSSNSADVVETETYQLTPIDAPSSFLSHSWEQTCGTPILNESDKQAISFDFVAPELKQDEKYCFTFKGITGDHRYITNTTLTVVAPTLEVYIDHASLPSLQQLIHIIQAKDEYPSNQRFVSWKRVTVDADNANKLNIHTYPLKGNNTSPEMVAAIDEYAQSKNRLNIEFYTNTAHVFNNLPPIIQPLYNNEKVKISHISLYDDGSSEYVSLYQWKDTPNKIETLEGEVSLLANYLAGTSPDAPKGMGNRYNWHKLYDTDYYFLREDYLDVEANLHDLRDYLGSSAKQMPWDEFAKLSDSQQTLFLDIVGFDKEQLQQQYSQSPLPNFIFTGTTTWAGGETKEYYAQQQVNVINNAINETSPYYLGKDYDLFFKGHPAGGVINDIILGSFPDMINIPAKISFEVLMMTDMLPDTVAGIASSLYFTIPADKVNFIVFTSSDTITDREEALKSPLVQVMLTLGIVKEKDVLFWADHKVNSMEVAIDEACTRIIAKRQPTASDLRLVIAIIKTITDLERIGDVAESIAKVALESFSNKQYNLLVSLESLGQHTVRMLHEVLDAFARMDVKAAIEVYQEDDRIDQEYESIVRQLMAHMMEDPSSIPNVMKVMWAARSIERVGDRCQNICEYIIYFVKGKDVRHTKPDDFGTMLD
Description: β-Galactoside-α2,6-sialyltransferase was purified from P. damselae strain JT0160, a marine microorganism, according to the procedure previously reported (Japanese Patent No. 3062409). The purity of the purified enzyme was confirmed by SDS-PAGE, whereby the final purified enzyme was confirmed to be an electrophoretically single protein. This purified enzyme was used in the following experiment.
The enzymatic reaction was accomplished in 20 μl reaction solution containing CMP-^14C-NeuAc as a glycosyl donor substrate (50.066 nmol, 25000 cpm), lactose as a glycosyl acceptor substrate (1 mmol), sialyltransferase (0.5 to 1.5 mU) and NaCl at a concentration varying from 0 to 2.5 M (30° C., 1 minute). After completion of the enzyme reaction, the radioactivity of NeuAc which was transferred to lactose under the respective conditions was measured to calculate the enzymatic activity, thereby studying the effect of NaCl on the enzymatic activity in each test range.
More specifically, after completion of the reaction, each reaction solution was supplemented with 1.98 ml of 5 mM phosphate buffer (pH 6.8) and applied to a AG1−×2Resin (PO4^3− form, 0.2×2 cm) column. This column was prepared as follows: AG1−×2Resin (OH^− form) (BIO-RAD) was suspended in 1 M phosphate buffer (pH 6.8), and after 30 minutes, the resin was washed with distilled water and then suspended in distilled water. The eluate (0 to 2 ml) from this column was measured for its radioactivity. The eluate from this column contains unreacted lactose and ^14C-NeuAc (N-acetylneuraminic acid)-bound sialyllactose which was generated by the reaction, but unreacted CMP-^14C-NeuAc is still retained on the column. Thus, the radioactivity of ^14C from sialyllactose generated as a result of the enzymatic reaction arises exclusively from the reaction product, so that the radioactivity of this fraction can be used to calculate the enzymatic activity.
The enzyme reaction was accomplished in 20 μl reaction solution containing CMP-^14C-NeuAc as a glycosyl donor substrate (50.066 nmol, 25000 cpm), lactose as a glycosyl acceptor substrate (1 mmol), sialyltransferase (0.5 to 1.5 mU) and KCl at a concentration varying from 0 to 1 M (30° C., 1 minute). After completion of the enzyme reaction, the radioactivity of NeuAc which was transferred to lactose under the respective conditions was measured to calculate the enzyme activity, thereby studying the effect of KCl on the enzyme activity in each test range. More specifically, after completion of the reaction, each reaction solution was supplemented with 1.98 ml of 5 mM phosphate buffer (pH 6.8) and applied to a AG1−×2Resin (PO4^3− form, 0.2×2 cm) column. This column was prepared as follows: AG1−×2Resin (OH^− form) (BIO-RAD) was suspended in 1 M phosphate buffer (pH 6.8), and after 30 minutes, the resin was washed with distilled water and then suspended in distilled water. The eluate (0 to 2 ml) from this column was measured for its radioactivity.
The enzyme reaction was accomplished in 20 μl reaction solution containing CMP-^14C-NeuAc as a glycosyl donor substrate (50.066 nmol, 25000 cpm), lactose as a glycosyl acceptor substrate (1 mmol), sialyltransferase (0.5 to 1.5 mU) and any one of MgCl2, MgSO4, CoCl2, CaCl2, MnCl2 or FeSO4 at a final concentration of 0 mM, 10 mM or 20 mM. (30° C., 1 minute). After completion of the enzyme reaction, the radioactivity of NeuAc which was transferred to lactose under the respective conditions was measured to calculate the enzyme activity, thereby studying the effect of various salts on the enzyme activity in each test range. More specifically, after completion of the reaction, each reaction solution was supplemented with 1.98 ml of 5 mM phosphate buffer (pH 6.8) and applied to a AG1−×2Resin (PO4^3− form, 0.2×2 cm) column. […]

[2] = target: T2, Rat liver-derived β-galactoside-α2,6-sialyltransferase (Rattus norvegicus, UniProt P13721); assay: Effect of NaCl on enzyme activity of rat liver-derived sialyltransferase, 14C-NeuAc transfer to asialofetuin; format: biochemical; conditions: NaCl 0 to 1.4 M; 37° C., 1 hour; relative to NaCl-free reaction solution = 1; FIG. 3
T2 construct: purchased Wako Pure Chemical Industries, Ltd., Japan; host or cells: rat liver-derived
T2 sequence (P13721 1-403): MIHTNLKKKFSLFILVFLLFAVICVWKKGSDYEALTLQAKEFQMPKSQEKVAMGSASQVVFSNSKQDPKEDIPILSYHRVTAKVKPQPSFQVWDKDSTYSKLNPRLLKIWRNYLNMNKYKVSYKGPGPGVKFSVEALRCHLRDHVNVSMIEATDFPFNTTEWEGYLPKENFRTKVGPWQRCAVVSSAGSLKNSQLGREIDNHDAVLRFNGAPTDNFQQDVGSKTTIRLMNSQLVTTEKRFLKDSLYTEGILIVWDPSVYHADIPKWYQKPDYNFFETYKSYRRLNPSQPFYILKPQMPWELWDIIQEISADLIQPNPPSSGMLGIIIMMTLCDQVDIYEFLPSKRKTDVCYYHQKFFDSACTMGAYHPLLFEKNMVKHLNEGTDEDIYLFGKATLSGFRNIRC
Description: The enzyme reaction was accomplished in the presence of CMP-^14C-NeuAc as a glycosyl donor substrate (50.066 nmol, 25000 cpm), asialofetuin as a glycosyl acceptor substrate (10 mg), sialyltransferase (1 to 5 mU) and NaCl at a concentration varying from 0 to 1.4 M (37° C., 1 hour). After completion of the enzymatic reaction, each reaction solution was applied to a Sephadex G-50 super fine (Amersham) column (0.8×20 cm) and eluted using a 0.1 M NaCl solution as a mobile phase to collect a high-molecular fraction containing a reaction product eluted at 2 to 4 ml (i.e., an enzymatic reaction product in which ^14C-labeled NeuAc was transferred to asialofetuin). It should be noted that a control experiment was performed for each reaction to confirm that unreacted CMP-^14C-NeuAc was not eluted in this fraction. The radioactivity of NeuAc transferred to asialofetuin was measured from the fraction to calculate the enzyme activity.

[3] = salt added at 10 mM, absence of salt = 1
[4] = salt added at 20 mM, absence of salt = 1

SMILES | relative activity [1, 3] | relative activity [1, 4] | further results
[Ca+2].[Cl-].[Cl-] [CaCl2] | 0.86 | 0.82 | –
[Cl-].[Cl-].[Co+2] [CoCl2] | – | – | relative activity [1]: 0.69 and 0.41
O=S(=O)([O-])[O-].[Fe+2] [FeSO4] | 0.85 | 0.93 | –
[Cl-].[K+] [KCl] | – | – | improvement of sialyltransferase activity by KCl ([1]; KCl 0 to 1 M, 30° C., 1 minute, FIG. 2): not observed to improve the activity
[Cl-].[Cl-].[Mg+2] [MgCl2] | 0.97 | 0.84 | –
O=S(=O)([O-])[O-].[Mg+2] [MgSO4] | 0.87 | 0.89 | –
[Cl][Mn][Cl] [MnCl2] | 0.78 | 0.92 | –
[Cl-].[Na+] [NaCl] | – | – | increase in enzyme activity on addition of NaCl [2]: no increase
